Some of the results follow. The full chains were built here from the parent and the listed change. Inactive controls read about 0.05.
B1: TEV protease; numbered along this chain (parent)
chain: MGESLFKGPRDYNPISSSICHLTNESDGHTTSLYGIGFGPFIITNKHLFRRNNGTLVVQSLHGVFKVKDTTTLQQHLVDGRDMIIIRMPKDFPPFPQKLKFREPQREERICLVTTNFQTKSMSSMVSDTSCTFPSGDGIFWKHWIQTKDGQCGSPLVSTRDGFIVGIHSASNFTNTNNYFTSVPKNFMELLTNQEAQQWVSGWRLNADSVLWGGHKVFMVKPEEPFQPVKEATQL

Variants of: B1
Test: raw area under fraction-flipped curve 0-4 h after induction (AUC4h, not background-subtracted), DNA-recorder readout of cleavage of the substrate (dimensionless); higher = more cleavage of the substrate by the protease variant
Details: temperature: 34 °C; time window: 0-4 h after rhamnose induction
Method: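 In vivo DNA recorder in E. coli TOP10(DE3) ΔrhaA at 34 °C. Each TEVp single-site mutant (parent TEVp 0) is paired with a single-site variant of the 7-mer TEVs (canonical ENLYFQ|S). The substrate sits between flexible linkers in a Bxb1-sfGFP-TEVs-SsrA fusion, so cleavage stabilises Bxb1 and speeds flipping of a recombination array, read by NGS. The value is the raw area under the fraction-flipped curve over 0-4 h after rhamnose induction (AUC4h), with ≥20 reads per time point. It is not background-subtracted; inactive controls average about 0.047.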
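Further: Bxb1 expression induced with 0.2% (w/v) L-rhamnose at OD600 near 0.5, cultures sampled hourly, flipped fraction per protease–substrate barcode pair counted by paired-end Illumina sequencing.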

G37Q
area with substrate ENLYAQS: 0.0124 | area with substrate ENLYDQS: 0.0523 | area with substrate ENLYEQS: 0.0631 | area with substrate ENLYHQS: 0.0489 | area with substrate ENLYKQS: 0.0609 | area with substrate ENLYLQS: 0.0518 | area with substrate ENLYMQS: 0.0646 | area with substrate ENLYNQS: 0.0534 | area with substrate ENLYQQS: 0.0775 | area with substrate ENLYRQS: 0.05 | area with substrate ENLYTQS: 0.0593 | area with substrate ENLYVQS: 0.0766 | area with substrate ENLYWQS: 0.0558

L61C
area with substrate ENLYAQS: 0.0769 | area with substrate ENLYDQS: 0.0484 | area with substrate ENLYEQS: 0.0761 | area with substrate ENLYGQS: 0.0838 | area with substrate ENLYHQS: 0.0707 | area with substrate ENLYKQS: 0.0563 | area with substrate ENLYLQS: 0.0833 | area with substrate ENLYMQS: 0.0835 | area with substrate ENLYNQS: 0.0688 | area with substrate ENLYPQS: 0.0725 | area with substrate ENLYQQS: 0.0719 | area with substrate ENLYRQS: 0.0651 | area with substrate ENLYSQS: 0.0657 | area with substrate ENLYTQS: 0.0804 | area with substrate ENLYVQS: 0.113 | area with substrate ENLYWQS: 0.0851 | area with substrate ENLYYQS: 0.0723

S32C
area with substrate ENLYAQS: 0.0781 | area with substrate ENLYCQS: 0.104 | area with substrate ENLYDQS: 0.0672 | area with substrate ENLYEQS: 0.0684 | area with substrate ENLYGQS: 0.0689 | area with substrate ENLYHQS: 0.0745 | area with substrate ENLYIQS: 0.131 | area with substrate ENLYKQS: 0.0582 | area with substrate ENLYMQS: 0.0552 | area with substrate ENLYNQS: 0.0707 | area with substrate ENLYPQS: 0.0776 | area with substrate ENLYQQS: 0.0733 | area with substrate ENLYRQS: 0.0558 | area with substrate ENLYSQS: 0.085 | area with substrate ENLYTQS: 0.0883 | area with substrate ENLYVQS: 0.0875

S32F
area with substrate ENLYAQS: 0.0738 | area with substrate ENLYEQS: 0.0624 | area with substrate ENLYGQS: 0.0661 | area with substrate ENLYHQS: 0.0691 | area with substrate ENLYIQS: 0.125 | area with substrate ENLYKQS: 0.0691 | area with substrate ENLYLQS: 0.0748 | area with substrate ENLYMQS: 0.0726 | area with substrate ENLYNQS: 0.07 | area with substrate ENLYPQS: 0.0661 | area with substrate ENLYQQS: 0.0799 | area with substrate ENLYRQS: 0.0546 | area with substrate ENLYSQS: 0.0532 | area with substrate ENLYTQS: 0.0671 | area with substrate ENLYVQS: 0.0856 | area with substrate ENLYWQS: 0.0705

S32V
area with substrate ENLYAQS: 0.0679 | area with substrate ENLYDQS: 0.0649 | area with substrate ENLYEQS: 0.067 | area with substrate ENLYGQS: 0.0745 | area with substrate ENLYHQS: 0.0654 | area with substrate ENLYIQS: 0.111 | area with substrate ENLYKQS: 0.0642 | area with substrate ENLYMQS: 0.0832 | area with substrate ENLYNQS: 0.0743 | area with substrate ENLYPQS: 0.0624 | area with substrate ENLYRQS: 0.0478 | area with substrate ENLYSQS: 0.0549 | area with substrate ENLYTQS: 0.0768 | area with substrate ENLYVQS: 0.106 | area with substrate ENLYWQS: 0.0749 | area with substrate ENLYYQS: 0.0624

S32T
area with substrate ENLYAQS: 0.0713 | area with substrate ENLYCQS: 0.115 | area with substrate ENLYDQS: 0.0703 | area with substrate ENLYEQS: 0.0577 | area with substrate ENLYHQS: 0.0722 | area with substrate ENLYIQS: 0.141 | area with substrate ENLYKQS: 0.0588 | area with substrate ENLYLQS: 0.0719 | area with substrate ENLYNQS: 0.0349 | area with substrate ENLYPQS: 0.0772 | area with substrate ENLYQQS: 0.0632 | area with substrate ENLYRQS: 0.0622 | area with substrate ENLYSQS: 0.0602 | area with substrate ENLYTQS: 0.0712 | area with substrate ENLYVQS: 0.122 | area with substrate ENLYWQS: 0.0881

P9Q
area with substrate ENLYAQS: 0.0923 | area with substrate ENLYCQS: 0.109 | area with substrate ENLYDQS: 0.0572 | area with substrate ENLYEQS: 0.0781 | area with substrate ENLYGQS: 0.0668 | area with substrate ENLYHQS: 0.0592 | area with substrate ENLYKQS: 0.0696 | area with substrate ENLYNQS: 0.0594 | area with substrate ENLYRQS: 0.0423 | area with substrate ENLYTQS: 0.0784 | area with substrate ENLYVQS: 0.122 | area with substrate ENLYWQS: 0.0912 | area with substrate ENLYYQS: 0.0317

S18T
area with substrate ENLYAQS: 0.0936 | area with substrate ENLYCQS: 0.0997 | area with substrate ENLYDQS: 0.0475 | area with substrate ENLYEQS: 0.0593 | area with substrate ENLYHQS: 0.0719 | area with substrate ENLYIQS: 0.161 | area with substrate ENLYKQS: 0.0622 | area with substrate ENLYMQS: 0.0814 | area with substrate ENLYNQS: 0.048 | area with substrate ENLYQQS: 0.0668 | area with substrate ENLYSQS: 0.0445 | area with substrate ENLYVQS: 0.152 | area with substrate ENLYWQS: 0.0778 | area with substrate ENLYYQS: 0.066

S18M
area with substrate ENLYAQS: 0.0776 | area with substrate ENLYDQS: 0.0595 | area with substrate ENLYEQS: 0.0695 | area with substrate ENLYIQS: 0.108 | area with substrate ENLYKQS: 0.0605 | area with substrate ENLYMQS: 0.0673 | area with substrate ENLYNQS: 0.0785 | area with substrate ENLYPQS: 0.0783 | area with substrate ENLYRQS: 0.0593 | area with substrate ENLYTQS: 0.0839 | area with substrate ENLYWQS: 0.0803 | area with substrate ENLYYQS: 0.058

L48D
area with substrate ENLYAQS: 0.0789 | area with substrate ENLYDQS: 0.0598 | area with substrate ENLYEQS: 0.0611 | area with substrate ENLYGQS: 0.0931 | area with substrate ENLYHQS: 0.0574 | area with substrate ENLYIQS: 0.0656 | area with substrate ENLYKQS: 0.0239 | area with substrate ENLYMQS: 0.0567 | area with substrate ENLYNQS: 0.0432 | area with substrate ENLYPQS: 0.0558 | area with substrate ENLYQQS: 0.0613 | area with substrate ENLYRQS: 0.0515 | area with substrate ENLYSQS: 0.0641 | area with substrate ENLYTQS: 0.0415 | area with substrate ENLYWQS: 0.0572 | area with substrate ENLYYQS: 0.0655

L48Y
area with substrate ENLYAQS: 0.0581 | area with substrate ENLYCQS: 0.0797 | area with substrate ENLYEQS: 0.0725 | area with substrate ENLYGQS: 0.0537 | area with substrate ENLYHQS: 0.0552 | area with substrate ENLYIQS: 0.0702 | area with substrate ENLYMQS: 0.052 | area with substrate ENLYNQS: 0.0629 | area with substrate ENLYPQS: 0.0596 | area with substrate ENLYRQS: 0.0659 | area with substrate ENLYTQS: 0.0613 | area with substrate ENLYVQS: 0.0459 | area with substrate ENLYYQS: 0.0603

V64A
area with substrate ENLYAQS: 0.0794 | area with substrate ENLYDQS: 0.067 | area with substrate ENLYEQS: 0.0651 | area with substrate ENLYHQS: 0.0724 | area with substrate ENLYIQS: 0.133 | area with substrate ENLYMQS: 0.0853 | area with substrate ENLYPQS: 0.0751 | area with substrate ENLYRQS: 0.055 | area with substrate ENLYWQS: 0.078 | area with substrate ENLYYQS: 0.0576

From the supplement of paper PMC12217912
